Values marked as one replicate rest on one cluster of the flow cell; about a third of the high ones do not repeat.
System: ATP
Assay: switch fluorescence ratio, 500 uM ATP over buffer (Cy3 cluster intensity, sum of 5 cycles each) (fold (ratio)); higher = stronger signal-on switching upon ATP binding; sequences stand for … in TCGTCGGCAGCGTCAGATGTGTATAAGAGACAGTTTTTTTTTTTTTTTTTTTTTTTTT…TC
Settings: aptamer strand: ATP DNA aptamer (quencher-CACCTGGGGGAGTATTGCGGAGGAAGG + anchor), 100 nM annealed; ATP concentration: 500 uM; one replicate
Method in brief: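 Five buffer/ATP imaging cycles were run on Cy3-labelled switching-strand clusters on a modified Illumina MiSeq flow-cell, with NaOH stripping and re-annealing between cycles. In each cycle, clusters annealed to 100 nM quencher-labelled ATP aptamer were imaged in selection buffer, then after 15 min with 500 uM ATP at 22 °C. Per cluster, the fluorescence ratio is summed target-cycle over summed buffer-cycle Cy3 intensity, averaged per switch-domain sequence. Only clusters within 100-1000 RFU were kept.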
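Also: ATP exposure 15 min at 22 °C before imaging.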

Sequence	switch fluorescence ratio
GGGCCTCTTA	1.01
CATCGTCGG	1
GGGGACAAGC	1.09
TCACGTTATA	1.21
TGCAGAAGGA	1.04
CCGACATGCT	3.28
CATGGCTGAT	0.994
AGGCTGATGA	0.979
TGTTCGGGCT	1
GTTCTCCTGT	1.05
GCATCGGGAT	1.03
TTATGTTGC	1
TTGCATCCCT	0.982
TCGAGGGCAC	0.987
AGACTCGGCC	1.02
AAAGGTAGAT	1.04
CGATTTCCTT	1.01
TGGGGTTAAC	0.981
TGGCCTATGA	0.939
GATTTAATCA	1.03
AGCTGGTGCG	1.04
TTCAGTCGGT	1.04
ACTAGCGTTC	1.01
TTGTAGGGC	1
GCAGTAACG	0.994
TGGTGTGGCA	0.937

Sequence	switch fluorescence ratio
CAGTGGGTAT	1.01
GAGCCGACGG	1.03
CGGTGTCATG	1.01
CGGGCTTTGA	1
ACAGGAAATG	1.01
AGCACCAGGA	1.28
GGTGCGATAT	1.48
CTCCGGAAGG	4.36
GAGTCCAACT	1
ACAGTTTTAT	0.983
GGAGGGTCCC	1.01
GCCTTCACTA	1.03
AGATGATGC	1.01
CTCGGT	1
CCTCAGCGAC	2.21
CCCGTGGGTG	3.42
TAAATCGATT	1.01
TACTTAATT	1.05
CCAGCTTTGA	1.02
CAAGGGGCGC	1.03
CAATATGCTT	1.02
GGTTTCCGAG	1.08
TACTAAATCA	1.04
CGAAGGGCCA	0.964
TTTGACGCA	1.65
GTACTTATCG	1

Sequence	switch fluorescence ratio
ATTATTTATT	0.963
GGGAGAGATA	0.991
AAAACTACAG	1.09
TAGCGCACTC	1.47
GCAATCAAAA	1.01
TTGTGTGTA	1.07
GAAACCGTGT	1.03
ACCGTTTCCG	1.11
ATTCGCTGTT	1.03
GAACCCATCA	1
TAGCGTCGCT	0.951
TGGGCGGTTT	1.01
AGCAACCCAC	1.53
AATGGTGTCT	0.957
TGCCCCCTTG	1.05
AGTGTCTTA	1.03
CTGTGAGCAG	1.07
AAGCGGTTGG	1.04
TATTAAGA	1.02
TTGTTCTCTC	1.01
GGTTGACGAT	1.01
GTTGTTCAGC	0.947
TTTTGGTTA	0.992
ATGGCTCATG	0.986
TTGGTTT	1
TGAGGGAGAG	0.97

Sequence	switch fluorescence ratio
CAGAGCTGCG	1.03
ATTTGCCCAG	1.04
GATCCCTTCT	1.11
AAAGTTGGCC	1.11
TTCCGCAGTG	3.38
GGTATCTTGA	0.995
GAAAAACTGA	1.05
TGCCCCATGC	1.24
GGAATAGGTA	1.02
CATCGAGGGC	1.02
CAGTTTATTG	0.975
ACTTATATGG	1.09
CTCTATCACG	1.09
GCTTCCAACT	1.01
CGCCACACGT	1.05
TTTCATCGGA	1
ACCCTGCGTT	1.05
CAGACTTCTG	0.967
TGTCAGGCGG	0.954
CGAGTTTC	1
TTAGCCAGTT	0.965
ACGGGAACAG	1.05
GTCCGCGGGC	1.08
AGAAACAAA	1.03
TTCTCAAGGG	0.999
CAATCTCAT	2.05

Sequence	switch fluorescence ratio
AAACGCTGAG	1.04
TTAGTTGTTG	0.961
TCGTAGTGTC	1.08
GAAACTAGGA	1.03
GGCTGGTCAA	1
CGAGGAAACG	0.976
GTTGTGTCGC	0.974
CGGCTAGCCG	0.988
GCGATCGTGA	1.06
GGGCTGTGAC	1.04
GGCTGCCGAC	1.04
TCAGAGTCGG	1
TAAGCCGACG	1.14
GCGGTCCGCC	1.08
TCTAGGTTAT	0.975
GGTAAGAGAA	1.02
AAGAAGATAT	0.993
GCAGTGCACG	1.03
GTGCAAGCAA	1.06
GCCCCATGGG	1.05
TGCAGTAGAA	0.95
CGGTGCGTG	1.01
GGCACGCGTA	1.02
AGCAGTATGT	0.992
CGTGGTCTGT	0.959
CTCCTTGCAG	1.61

Sequence	switch fluorescence ratio
CGGCAACCTA	1.12
GAGTGTTATT	1.01
GCGTCTGTT	0.975
ACGCGTTGGC	1.03
ACAAAAGGCT	1.02
TTAATCTTAC	1.21
ATGTGCGCCA	1.04
ACTTCTTTTT	1.02
TTAGTAGTCC	1.02
CGCTAGAGCG	1.02
AGGAATCTCA	1.01
AAAAGAGGCC	1.02
CGTCTTGCGA	0.97
ACTAGTTCTG	1.02
TACGTAGGCC	1.11
CACCCCACAG	1.29
CTTTGGATCC	1.02
AATCCCATCC	1.08
CCCCGTCCTG	1.06
AAGAGGAAA	0.955
AGATCAGAAG	0.981
GCGGGTGC	1.08
CACGTCTATT	1.05
TAAACATCCC	1.05
